# Targets with the largest changes are over-represented here; the source holds about 21,000 in all.
# Compound: Cc1cc(ccc1-c1ccccc1)C(=O)N1CCCN(CC1)C(=O)CCl [compound 10]
# Experiment: probe-labelled cysteine peptide fold change vs DMSO (competition) (log2 fold change); higher = less target engagement (more negative = stronger competition)
# Details: THP-1, incubation time: 4 h
# 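Also: competitive profiling in live THP-1 cells: cysteine peptides tagged with an iodoacetamide desthiobiotin (IA-DTB) probe, intensity after compound treatment relative to DMSO-treated cells.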
Target,probe-labelled cysteine peptide fold change (10 µM),probe-labelled cysteine peptide fold change (50 µM)
HEATR5B_Q9P2D3_870_CAAGEALGR (UniProt Q9P2D3),-0.0657,-0.132
HLA-C_P04222_364_GGSCSQAASSNSAQGSDESLIACKA (UniProt P04222),-0.585,-1.41
GALNT1_Q10472_442_NVETNQCLDNMAR (UniProt Q10472),-0.0578,-0.249
GPX1_P07203_115_CEVNGAGAHPLFAFLR (UniProt P07203),-0.00215,-0.045
HAUS7_Q99871_348_KQQGEQICWGGSSSVMSLATK (UniProt Q99871),-0.205,-1.08
HADHA_P40939_322_TGIEQGSDAGYLCESQK (UniProt P40939),-0.303,-0.276
HCCS_P53701_66_AYEYVECPIR (UniProt P53701),-0.239,-0.53
HK3_P52790_409_AAQLCAAALAAVLSCLQHSR (UniProt P52790),-0.059,0.0868
HCFC2_Q9Y5Z7_215_MYVFGGMCGAR (UniProt Q9Y5Z7),-0.131,-0.281
FLII_Q13045_560_KACSAIHAVNLR (UniProt Q13045),-0.147,-0.868
GATAD2B_Q8WXI9_308_GPPKPGLVRTTTPNMNPAINYQPQSSSSVPCQR (UniProt Q8WXI9),-0.0711,-1.45
FKBP4_Q02790_103+107_VGEVCHITCKPEYAYGSAGSPPK (UniProt Q02790),0.262,-0.123
HLA-C_P04222_345_GGSCSQAASSNSAQGSDESLIACKA (UniProt P04222),-0.172,-1.32
HERC1_Q15751_4811_VDRPYDSLPTSQTCFFQLR (UniProt Q15751),-0.0658,-0.697
HDGF_P51858_108_KSCVEEPEPEPEAAEGDGDKK (UniProt P51858),-0.377,-1.45
GLA_P06280_378_GVACNPACFITQLLPVKR (UniProt P06280),0.251,-0.118
HK2_P52789_823_EVCTVVAR (UniProt P52789),0.0182,0.0259
GGA2_Q9UJY4_93_EALYALTVLEMCMNHCGEK (UniProt Q9UJY4),0.118,-0.244
FTSJ3_Q8IY81_52_ALLDLCAAPGGWLQVAAK (UniProt Q8IY81),-0.175,0.00307

Target,probe-labelled cysteine peptide fold change (10 µM),probe-labelled cysteine peptide fold change (50 µM)
FN3KRP_Q9HA64_24_ATGHSGGGCISQGR (UniProt Q9HA64),-0.318,-1.31
GNPNAT1_Q96EK6_157_ITLECLPQNVGFYKK (UniProt Q96EK6),-0.202,-0.016
HERC2_O95714_4308_VACGSAHTLAWSTSK (UniProt O95714),0.156,0.174
GPD1L_Q8N335_202_ITVVDDADTVELCGALK (UniProt Q8N335),-0.101,0.025
GID8_Q9NWU2_139_QRETEAALEFAQTQLAEQGEESRECLTEMER (UniProt Q9NWU2),0.145,0.0196
FTH1_P02794_91_KPDCDDWESGLNAMECALHLEK (UniProt P02794),1.54,0.825
FMNL1_O95466_787_EQRPMEELSEEDRFMLCFSR (UniProt O95466),-0.11,-0.0488
HERC4_Q5GLZ8_175_YGQLGLGTDCKK (UniProt Q5GLZ8),-0.262,-0.765
HELQ_Q8TDG4_149_HATDFATENLCSESIK (UniProt Q8TDG4),0.0211,-0.0532
HDAC2_Q92769_13_KVCYYYDGDIGNYYYGQGHPMKPHR (UniProt Q92769),-0.0165,-0.651
FN1_P02751_179_GEWTCKPIAEK (UniProt P02751),-0.495,-0.763
GSN_P06396_672_LFACSNK (UniProt P06396),0.00574,-0.0536
GTF3C6_Q969F1_178_SLELEEEEIQMNDSSNLSCEQEK (UniProt Q969F1),-0.0206,0.0042
GSN_P06396_228_ATEVPVSWESFNNGDCFILDLGNNIHQWCGSNSNR (UniProt P06396),0.116,0.015
GFM1_Q96RP9_256_QELIECVANSDEQLGEMFLEEK (UniProt Q96RP9),-0.271,-0.0169
HBS1L_Q9Y450_529_LLAMPPNETCTVK (UniProt Q9Y450),-0.236,0.00185
GLRX5_Q86SX6_67_GTPEQPQCGFSNAVVQILR (UniProt Q86SX6),-1.03,-2.24
HCFC1_P51610_227_KSKLVIYGGMSGCR (UniProt P51610),0.0274,0.366
